From the RNAGym collection of RNA variant scans (doi:10.1073/pnas.2313332121)
Variants at the floor of the assay are shown more often than the library holds them.

B1: TPR 5TU (parent)
chain: GGAUCUUCUCGAUCUAACAAAAAAGACAAAUCUGCCACAAAGCUUGAGAGCAUCUUCGGAUGCAGAGGCGGCAGCCUUCGGUGGCGCGAUAGCGCCAACGUUCUCAACUAUGACACGCAAAACGCGUGCUCCGUUGAAUGGAGUUUAUCAUG

Variants of: B1
Assay: polymerase ribozyme fitness, log enrichment relative to wild type (log ratio); higher = more active; in vitro selection for triplet polymerase activity
Method in brief: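 Streptavidin-bead capture of gel-excised extended constructs, followed by RT-PCR, closed a single triplicate in vitro selection round. That round began by annealing PCR-built, transcribed mutant libraries of each subunit of a heterodimeric triplet polymerase ribozyme with a biotinylated primer, the partner subunit and triplets, then incubating them frozen at −7 °C. After Illumina sequencing of inputs and outputs, genotypes needed ≥10 input reads and ≥1 read per output. Fitness is the base-2 logarithm of genotype enrichment over wild-type enrichment, using inverse-variance-weighted replicate averages.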

| Variant | polymerase ribozyme fitness (log ratio) |
| --- | --- |
| GGAUCUUCUCGAUCUAACAAAAAAGACAAAUCUGCCACAAAGCUUGAGAGCAUCUUCGGAUGCAGAGGCGGCAGCAUUCGGUGGCGCGAUAGCGCCAACGUGCUCAACUAUGACACGCAAAACGCGUGCUCCGUUGAAUCGAGUUUAUCAUG | ≤ -4.2 |
| GGAUCUUCUCGAUCUAACAAAAAAGACAAAUCUGCCACAAAGCUUGAGAGCAUCUUCGGAUGCAGAGGCGGCAGCAUUCGGUGGCGCGAUAGCGCCAACGUUCACAACUAUGACACGCAAAACGAGUGCUCCGUUGAAUGGCGAUUAUCAUG | ≤ -4.2 |
| GGAUCUUCUCGAUCUAACAAAAAAGACAAAUCUGCCACAAAGCUUGAGAGCAUCUUCGGAUGCAGAGGCGGCAGUCUUCGGUGGCGCGAUAGCGCCAACGUUCUCAACUAUGACACGCAAAACGCGUGCUCCGUUGAAUGGAGUCGAUCAUG | -0.419 |
| GGAUCUUCUCGAUCUAACAAAAAAGACAAAUCUGCCACAAAGCUUGAGAGCAUCUUCGGAUGCAGAGGCGGCAGCAUUCGGUGGCGCGAGAGCGCCAACGUUCUCAACUAUGACACGCAAAACGCGUGCUCCGUUGAAUGGAGUUUAUCAUG | ≤ -4.2 |
| GGAUCUUCUCGAUCUAACAAAAAAGACAAAUCUGCCACAAAGCUUGAGAGCAUCUUCGGAUGCAGAGGCGGCAGCAUUCGGUGGCGCGAUAGCGCCAACGUUCUCAACUAUGACACGCAAAACGCGUGCUCCGUUGAUUGGAGUUUAUCAUG | -4.05 |
| GGAUCUUCUCGAUCUAACAAAAAAGACAAAUCUGCCACAAAGCUUGAGAGCAUCUUCGGAUGCAGAGGCGGCAGCAUUCGGUGGCGCGAUAGCGCCAACGUUCUCAACUAUGACACGCAAAGCGCGUGCUCCGUUGAAUGGAGUUUAUCAUG | -0.466 |
| GGAUCUUCUCGAUCUAACAAAAAAGACAAAUCUGCCACAAAGCUUGAGAGCAUCUUCGGAUGCAGAGGCGGCAGCAUUCGGUGGCGAGAUAGCGCCAACGUUCUCAACUAUGACACGCAAAACGCGUGCUCCGUUGAAUGGAGUUUAUCAUG | ≤ -4.2 |
| GGAUCUUCUCGAUCUAACAAAAAAGACAAAUCUGCCACAAAGCUUGAGAGCAUCUUCGGAUGCAGAGGCGGCAGUCUUCGGUGGCGCGAUAGCCCCAACGUUCUCAACUAUGACACGCAAAACGCGUGCUCCGUUGAAUGGCGUUUAUCAUG | -2.58 |
| GGAUCUUCUCGAUCUAACAAAAAAGACAAAUCUGCCACAAAGCUUGAGAGCAUCUUCGGAUGCAGAGGCGGCAGCAUUCGGUGGCGCGAUAGCGCCAUCAUUCUCAACUAUGACACGCAAAACGCGUGCUCCGUUGAAUGGAGUUUAUCAUG | ≤ -4.2 |
| GGAUCUUCUCGAUCUAACAAAAAAGACAAAUCUGCCACAAAGCUUGAGAGCAUCUUCGGAUGCAGAGGCGGCAGCAUUCGGUGGCGCGAUAGCGCCAACGUUCUCAACUAUGACACGCAAAACGCGUGGUCCGUUAAAUGGAGUUUAUCAUG | -3.95 |
| GGAUCUUCUCGAUCUAACAAAAAAGACAAAUCUGCCACAAAGCUUGAGAGCAUCUUCGGAUGCAGAGGCGGCAGUCUUCGGUGGCGCAAUAGCGCCAACGUUCUCAACUAUGACACGUAAAACGCGUGCUCCGUUGAAUGGAGUUUAUCAUG | ≤ -4.2 |
| GGAUCUUCUCGAUCUAACAAAAAAGACAAAUCUGCCACAAAGCUUGAGAGCAUCUUCGGAUGCAGAGGCGGCAGCAUUCGGUGGCGCGAUAGCGCCAACGUGCUCAACUAUGACACGCAAAACGCGUGCUCCGUUGAAUGGAGUUUAUCAUG | ≤ -4.2 |
| GGAUCUUCUCGAUCUAACAAAAAAGACAAAUCUGCCACAAAGCUUGAGAGCAUCUUCGGAUGCAGAGGCGGCAGCAUUCGGUGGCGAGAUAGCGUCAACGUUCUCAACUAUGACUCGCAAAACCCGUGCUCCGUUGAAUGGAGUUUAUCAUG | ≤ -4.2 |
| GGAUCUUCUCGAUCUAACAAAAAAGACAAAUCUGCCACAAAGCUUGAGAGCAUCUUCGGAUGCAGAGGCGGCAGCAUUCGGUGGCGCGAUAGCACCAACGUUCUCAACUAUGACACGCAAAACGCGUGCUCCGUUGAAUGGAGUUUAUCAUG | -0.598 |
| GGAUCUUCUCGAUCUAACAAAAAAGACAAAUCUGCCACAAAGCUUGAGAGCAUCUUCGGAUGCAGAGGCGGCAGCAUUCGGUGGUGCGAUAGCGCCAACGUUCUCAACUAUGACACGCAAAACGCGUGCUCCGUUGAAUCGAGUUUAUCAUG | -3.97 |
| GGAUCUUCUCGAUCUAACAAAAAAGACAAAUCUGCCACAAAGCUUGAGAGCAUCUUCGGAUGCAGAGGCGGCAGCAUUCGGUGGCGAGAUAGCGCCAAUGUUCUCAACUAUGACACGCAAAACGCGUGCUCCGUUGAAUGGAGUUUAUCACG | ≤ -4.2 |
| GGAUCUUCUCGAUCUAACAAAAAAGACAAAUCUGCCACAAAGCUUGAGAGCAUCUUCGGAUGCAGAGGCGGCAGUCUUCGGUGUCGCGAUAGCGCCAACGUUCUCAACUAUGACACGCAAAACGCGUGCUCCGUUGAAUGGAGUUUAACAUG | ≤ -4.2 |
| GGAUCUUCUCGAUCUAACAAAAAAGACAAAUCUGCCACAAAGCUUGAGAGCAUCUUCGGAUGCAGAGGCGGCAGCAUUUGGUGGCGCGAUAGCGCAAACGUUCUCAACUAUGACACGCAAAACGCGUGCUCCGUUGAAAGGAGUUUAUCAUG | ≤ -4.2 |
| GGAUCUUCUCGAUCUAACAAAAAAGACAAAUCUGCCACAAAGCUUGAGAGCAUCUUCGGAUGCAGAGGCGGCAGCAUUCGGUGGCGGGAUAGCGCCAUCGUUCUCAACUAUGACGCGCAAAACGCGUGCUCCGUUGAAUGCAGUUUAUCAUG | ≤ -4.2 |

| Variant | polymerase ribozyme fitness (log ratio) |
| --- | --- |
| GGAUCUUCUCGAUCUAACAAAAAAGACAAAUCUGCCACAAAGCUUGAGAGCAUCUUCGGAUGCAGAGGCGGCAGCAUUCGGUGGCGCGAUAGCGCCAACGUUUUCAACUAUGACACGCAAAACGCGUGCUCCGAUGAAUGGAGUUUAUCAUG | -4.15 |
| GGAUCUUCUCGAUCUAACAAAAAAGACAAAUCUGCCACAAAGCUUGAGAGCAUCUUCGGAUGCAGAGGCGGCAGUCUUCGGUGGCGCGACUGGUCCACCGUUCUCAACUAUGACACGCAAAACGCGUGCUCCGUUGAAUGGAGUUUAUCAUG | ≤ -4.2 |
| GGAUCUUCUCGAUCUAACAAAAAAGACAAAUCUGCCACAAAGCUUGAGAGCAUCUUCGGAUGCAGAGGCGGCAGCAUUGGGUGGCGCGAUAGCGCCAACGUUCCCAACUAUGACACGCAAAACGCGUGCUCCGUUGAAUGGAGUUUAUCAUG | ≤ -4.2 |
| GGAUCUUCUCGAUCUAACAAAAAAGACAAAUCUGCCACAAAGCUUGAGAGCAUCUUCGGAUGCAGAGGCGGCAGCAUUAGGUGGCUCGAUAGCGCCAACGUUCUCAACUAUGACACGCAAAACGCGUGCUCCGUUGAAUGGAGUUUAUCAUG | ≤ -4.2 |
| GGAUCUUCUCGAUCUAACAAAAAAGACAAAUCUGCCACAAAGCUUGAGAGCAUCUUCGGAUGCAGAGGCGGCAGUCUCCGGUGACGCGAUAGCGCCAACGUUCUCAACUAUGACACGCAAAACGCGUGCUCCGUUGAAUGGAGUUUAUCAUG | -1.65 |
| GGAUCUUCUCGAUCUAACAAAAAAGACAAAUCUGCCACAAAGCUUGAGAGCAUCUUCGGAUGCAGAGGCGGCAGUCUUCGGUGGCGCCUUAGCGCCAACGUUCUCAACUAUGACACACAAAACGCCUGCUCCGUUGAAUGGAGUUUAUCAUG | ≤ -4.2 |
| GGAUCUUCUCGAUCUAACAAAAAAGACAAAUCUGCCACAAAGCUUGAGAGCAUCUUCGGAUGCAGAGGCGGCAGCAUUCGGUUGCGCGAUAGCGCCAACGUUCUCGACUAUGACACGCAAAACGCGUGCUCCGUUGAAUGGAGUUUAUCAUG | -3.45 |
| GGAUCUUCUCGAUCUAACAAAAAAGACAAAUCUGCCACAAAGCUUGAGAGCAUCUUCGGAUGCAGAGGCGGCAGUCUUCGGUGGCGCGAUAGCGCCAACGAUCGCAACUAUGACACGCAAAACGCGUGCUCCGUCGAAUGGAGUUUAUCAUG | ≤ -4.2 |
| GGAUCUUCUCGAUCUAACAAAAAAGACAAAUCUGCCACAAAGCUUGAGAGCAUCUUCGGAUGCAGAGGCGGCAGCAUUCGGUGGCGCGAUAGCGCCAUCGUUCUCAACUAUGACACGCAAAACGCGUGCUCCGUUGAAUGGAGUUUACCAUG | ≤ -4.2 |
| GGAUCUUCUCGAUCUAACAAAAAAGACAAAUCUGCCACAAAGCUUGAGAGCAUCUUCGGAUGCAGAGGCGGCAGCAUUCGGUGGCUCGAUAGCGCCAACGUUCUCAACUAUGACACGCAAAACGCGUGCUCCGUUGAAUGGAGUUUAUCAUG | -1.75 |
| GGAUCUUCUCGAUCUAACAAAAAAGACAAAUCUGCCACAAAGCUUGAGAGCAUCUUCGGAUGCAGAGGCGGCAGCAUUCGGAGGGGCGAUAGCGCCAACGUUCUCGUGUAUGACACGCAAAACGCGUGAUCCGUUGAAUGGAGUUUAUCAUG | ≤ -4.2 |
| GGAUCUUCUCGAUCUAACAAAAAAGACAAAUCUGCCACAAAGCUUGAGAGCAUCUUCGGAUGCAGAGGCGGCAGCGUUCGGUGGCGCGAUAGCGCCGACGUUCUCAACUAUGACACGCAAAACGCGUGCUCCGUUGAAUGGAGUUUAUCAUG | ≤ -4.2 |
| GGAUCUUCUCGAUCUAACAAAAAAGACAAAUCUGCCACAAAGCUUGAGAGCAUCUUCGGAUGCAGAGGCGGCAGUCUUCGGUGGCGCGAUAGCGCCAACGUUCUCAACUAUGACACGCAAAACGCGUGCUCCGUUCAAUGGAGUUUAUCAUG | -2.6 |
| GGAUCUUCUCGAUCUAACAAAAAAGACAAAUCUGCCACAAAGCUUGAGAGCAUCUUCGGAUGCAGAGGCGGCAGCAUUCGGUGGCGCGAUAGCGCCAACGUUCUCAACUAUGACACGCAAAACGCGUGCUCCGUUGAAUGGAGUUUAUCAUU | ≤ -4.2 |
| GGAUCUUCUCGAUCUAACAAAAAAGACAAAUCUGCCACAAAGCUUGAGAGCAUCUUCGGAUGCAGAGGCGGCAGUCUUCGGUGGCUGGAUAGCGCCAACGUUCUCAACUAUGACACGCAAAACGCGUGCUCCGUCGAAUGGAGUUUAUCAUG | ≤ -4.2 |
| GGAUCUUCUCGAUCUAACAAAAAAGACAAAUCUGCCACAAAGCUUGAGAGCAUCUUCGGAUGCAGAGGCGGCAGCGUUCGGUGGCGCGCUAGCUCCAACGUUCUCAAUUAUGUCACGCAAAACGCGUGCUCCGUUGAAUGGAGUUUAUCAUG | ≤ -4.2 |
| GGAUCUUCUCGAUCUAACAAAAAAGACAAAUCUGCCACAAAGCUUGAGAGCAUCUUCGGAUGCAGAGGCGGCAGCAUUCGGUGGCGCGAUAGCGCCAACGUUCUCAACUAUGACACGCAAAAUGCGUGCUCCGAUGAAUGGAGUUUAUCAUG | -1.5 |
| GGAUCUUCUCGAUCUAACAAAAAAGACAAAUCUGCCACAAAGCUUGAGAGCAUCUUCGGAUGCAGAGGCGGCAGCAUUCGGUGGCGCGAUAGCGCCAACGUUCUCAACUAUGACACGCAAAACGCGUGCUCCGUUGAAUGGAGUUUAUCCUG | ≤ -4.2 |
| GGAUCUUCUCGAUCUAACAAAAAAGACAAAUCUGCCACAAAGCUUGAGAGCAUCUUCGGAUGCAGAGGCGGCAGCAUUCGGUGGUGCGAUAGCGCCAACGUUCUCAACUAUGACACGCAAAACGCGUGCUCCGUUGAAUGGAGUCUAUCAUG | -0.371 |
